Results reported in publication PMC8253491.
Results are given in words; binding and its absence hold for the method and conditions named. Binding seen in cells or lysates may run through a third protein. Some entries that bind do so weakly or less than the wild type. For some assays here: Sequences can lack the tags named with a protein.

The chains behind the UniProt entries cited, without tags or fusion partners.
UniProt P60953: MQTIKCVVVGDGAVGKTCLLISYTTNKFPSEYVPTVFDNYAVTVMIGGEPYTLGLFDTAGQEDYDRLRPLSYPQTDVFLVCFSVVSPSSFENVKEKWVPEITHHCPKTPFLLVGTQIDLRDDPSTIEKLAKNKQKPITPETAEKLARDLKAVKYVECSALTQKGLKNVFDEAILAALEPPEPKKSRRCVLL
UniProt Q8IXI2: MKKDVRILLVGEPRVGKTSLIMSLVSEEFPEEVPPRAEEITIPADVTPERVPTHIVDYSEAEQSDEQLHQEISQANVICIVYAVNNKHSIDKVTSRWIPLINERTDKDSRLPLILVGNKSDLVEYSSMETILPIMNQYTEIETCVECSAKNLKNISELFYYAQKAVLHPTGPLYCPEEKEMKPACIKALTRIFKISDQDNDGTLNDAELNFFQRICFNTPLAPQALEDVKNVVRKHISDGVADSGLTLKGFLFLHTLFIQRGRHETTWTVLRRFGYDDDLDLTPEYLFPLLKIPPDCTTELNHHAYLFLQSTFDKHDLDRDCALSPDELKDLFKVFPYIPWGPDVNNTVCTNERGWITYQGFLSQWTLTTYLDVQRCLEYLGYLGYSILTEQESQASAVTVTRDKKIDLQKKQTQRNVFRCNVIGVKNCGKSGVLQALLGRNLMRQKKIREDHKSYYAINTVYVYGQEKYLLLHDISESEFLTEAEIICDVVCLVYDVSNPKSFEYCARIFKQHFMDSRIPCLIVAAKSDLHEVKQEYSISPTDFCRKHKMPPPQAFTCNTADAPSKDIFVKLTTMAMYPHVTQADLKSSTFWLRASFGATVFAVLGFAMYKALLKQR
UniProt P61586: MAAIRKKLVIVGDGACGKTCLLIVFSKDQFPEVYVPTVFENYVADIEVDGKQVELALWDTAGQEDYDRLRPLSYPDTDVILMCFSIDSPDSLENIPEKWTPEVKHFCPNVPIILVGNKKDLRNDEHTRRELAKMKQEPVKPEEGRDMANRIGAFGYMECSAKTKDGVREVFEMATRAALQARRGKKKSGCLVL
UniProt P62745: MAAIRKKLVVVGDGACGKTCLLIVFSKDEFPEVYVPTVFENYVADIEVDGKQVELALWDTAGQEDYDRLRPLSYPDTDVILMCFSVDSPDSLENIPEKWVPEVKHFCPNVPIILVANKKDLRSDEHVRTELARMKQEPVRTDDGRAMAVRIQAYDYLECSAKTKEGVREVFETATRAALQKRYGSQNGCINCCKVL
UniProt P08134: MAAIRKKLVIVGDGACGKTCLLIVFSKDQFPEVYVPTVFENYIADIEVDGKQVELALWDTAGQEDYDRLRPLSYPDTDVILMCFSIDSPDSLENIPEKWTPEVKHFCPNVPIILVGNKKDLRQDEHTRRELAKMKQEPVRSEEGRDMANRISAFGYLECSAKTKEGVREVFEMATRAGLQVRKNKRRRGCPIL
UniProt P84095: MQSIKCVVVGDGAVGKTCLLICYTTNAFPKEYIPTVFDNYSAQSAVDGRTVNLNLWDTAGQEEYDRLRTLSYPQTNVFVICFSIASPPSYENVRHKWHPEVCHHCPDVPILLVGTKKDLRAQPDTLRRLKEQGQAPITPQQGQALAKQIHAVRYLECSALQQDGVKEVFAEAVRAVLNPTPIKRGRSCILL
UniProt P17081: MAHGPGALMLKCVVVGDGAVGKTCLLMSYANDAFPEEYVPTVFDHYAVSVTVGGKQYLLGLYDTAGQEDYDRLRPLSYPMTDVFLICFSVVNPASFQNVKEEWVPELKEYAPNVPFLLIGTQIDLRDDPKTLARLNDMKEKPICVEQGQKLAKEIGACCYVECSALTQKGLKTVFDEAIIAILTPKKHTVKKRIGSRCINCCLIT
UniProt Q9H4E5: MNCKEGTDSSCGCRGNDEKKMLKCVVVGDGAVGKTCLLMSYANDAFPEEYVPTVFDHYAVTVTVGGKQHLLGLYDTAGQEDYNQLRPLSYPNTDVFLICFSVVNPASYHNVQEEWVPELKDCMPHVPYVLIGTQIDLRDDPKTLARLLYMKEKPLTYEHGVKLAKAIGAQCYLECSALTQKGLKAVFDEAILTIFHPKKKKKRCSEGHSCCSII
UniProt Q7L0Q8: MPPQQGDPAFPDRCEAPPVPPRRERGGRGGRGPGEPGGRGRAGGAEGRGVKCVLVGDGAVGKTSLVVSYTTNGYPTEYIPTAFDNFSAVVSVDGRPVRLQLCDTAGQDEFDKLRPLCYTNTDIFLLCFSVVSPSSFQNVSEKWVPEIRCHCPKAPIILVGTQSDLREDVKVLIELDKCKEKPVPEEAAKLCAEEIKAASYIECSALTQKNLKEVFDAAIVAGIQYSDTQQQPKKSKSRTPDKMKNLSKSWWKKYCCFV

Experiments:
[1] = target: His-tagged RhoGDI-1 (human) (UniProt P52565); assay: pull-down; His-tagged RhoGDI co-expressed with V5-tagged GTPase in HEK293T; RhoGDI precipitated from lysate (1% Triton X-100, 150 mM NaCl, pH 7.4) with nickel-coated magnetic beads; anti-V5 Western blot; the paper calls it coimmunoprecipitation
[2] = target: T1, FLAG-tagged RhoGDI-3 (human) (UniProt Q99819); assay: co-IP; FLAG-tagged RhoGDI-3 co-expressed with V5-tagged GTPase in HEK293T; immunoprecipitated from lysate with anti-FLAG antibody cross-linked to magnetic beads; anti-V5 Western blot
T1 sequence: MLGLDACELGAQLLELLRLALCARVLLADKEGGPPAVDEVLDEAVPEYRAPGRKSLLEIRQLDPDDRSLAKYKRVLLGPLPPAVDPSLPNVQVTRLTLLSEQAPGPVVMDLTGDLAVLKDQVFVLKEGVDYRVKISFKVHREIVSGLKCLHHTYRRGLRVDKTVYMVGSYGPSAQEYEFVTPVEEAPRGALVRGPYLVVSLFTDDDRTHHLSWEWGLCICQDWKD

[3] = target: T2, His-tagged or FLAG-tagged RhoGDI-1 (human) (UniProt P52565); assay: pull-down + co-IP; His-tagged or FLAG-tagged RhoGDI-1 or RhoGDI-2 co-expressed with V5-tagged atypical GTPase or Miro in HEK293T; precipitated with nickel-coated magnetic beads or with anti-FLAG antibody cross-linked to magnetic beads (not told which in each panel); anti-V5 Western blot
T2 sequence: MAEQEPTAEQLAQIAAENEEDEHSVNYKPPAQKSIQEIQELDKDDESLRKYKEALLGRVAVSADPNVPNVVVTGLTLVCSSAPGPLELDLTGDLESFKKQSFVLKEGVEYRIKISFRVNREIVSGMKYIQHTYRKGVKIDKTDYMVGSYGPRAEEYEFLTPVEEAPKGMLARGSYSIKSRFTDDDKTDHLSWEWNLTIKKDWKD

[4] = target: T3, His-tagged or FLAG-tagged RhoGDI-2 (human) (UniProt P52566); assay: as above
T3 sequence: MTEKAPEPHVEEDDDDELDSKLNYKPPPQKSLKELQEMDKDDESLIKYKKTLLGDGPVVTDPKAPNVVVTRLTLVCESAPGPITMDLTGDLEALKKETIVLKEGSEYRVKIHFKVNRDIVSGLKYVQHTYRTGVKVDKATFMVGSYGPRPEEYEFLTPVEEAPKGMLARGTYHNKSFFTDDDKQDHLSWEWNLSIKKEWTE

[5] = target: His-tagged RhoGDI-2 (human) (UniProt P52566); assay: pull-down; His-tagged RhoGDI co-expressed with V5-tagged GTPase in HEK293T; RhoGDI precipitated from lysate (1% Triton X-100, 150 mM NaCl, pH 7.4) with nickel-coated magnetic beads; anti-V5 Western blot; the paper calls it coimmunoprecipitation

Substance	binding [1]	binding [2]	binding [3]	binding [4]	binding [5]
V5-tagged Cdc42 (from UniProt P60953 1-191)	binds	no binding			
V5-tagged Miro1 (from UniProt Q8IXI2 1-618)		no binding	no binding	no binding	
V5-tagged RhoA (from UniProt P61586 1-193)	binds	binds			
V5-tagged RhoB (from UniProt P62745 1-196)		binds			no binding
V5-tagged RhoC (from UniProt P08134 1-193)	binds	binds			
V5-tagged RhoG (from UniProt P84095 1-191)	binds	binds			no binding
V5-tagged TC10/RhoQ (from UniProt P17081 1-205)	no binding	no binding			no binding
V5-tagged TCL/RhoJ (from UniProt Q9H4E5 1-214)	no binding	no binding			no binding
V5-tagged Wrch1/RhoU (from UniProt Q7L0Q8 1-258)		no binding	no binding	no binding	
